Where “and” joins values, the source holds several entries; their conditions need not be identical. Equal values may be shown once. Out of some 48,000 compounds screened, about 1,200 (2.5%) were called active. Inconclusive results (about 2%) are left out.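 The calls were made as follows: active = activation of at least 60% and not above a set upper limit (about 1 call in 100 departs from these limits); inconclusive = activation of 40% to 60%, or above that upper limit; inactive = activation under 40%.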 This is one part of the list. Where a SMILES comes first, the peptide text is derived from it. [ ]: non-standard residue; d: D form. pGlu = O=C1CC[C@@H](C(=O)O)N1

UniProt O75388, sequence (O75388 whole entry, looked up): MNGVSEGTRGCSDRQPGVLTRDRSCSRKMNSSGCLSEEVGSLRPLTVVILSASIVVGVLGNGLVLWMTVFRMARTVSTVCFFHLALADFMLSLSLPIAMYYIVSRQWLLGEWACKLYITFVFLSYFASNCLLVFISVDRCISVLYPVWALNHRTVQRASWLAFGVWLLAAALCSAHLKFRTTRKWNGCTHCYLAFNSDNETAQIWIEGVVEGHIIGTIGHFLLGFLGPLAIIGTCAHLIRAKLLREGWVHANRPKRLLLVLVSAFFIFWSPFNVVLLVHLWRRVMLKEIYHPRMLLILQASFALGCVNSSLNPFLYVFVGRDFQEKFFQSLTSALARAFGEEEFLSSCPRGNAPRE

This test deals with Probable G-protein coupled receptor 32 (Homo sapiens) (UniProt O75388). Briefly: qHTS for Agonists of Human Resolvin D1 Receptor DRV1. Also: 0% is about no effect. To be noted: CHO-K1 GPR32 beta-arrestin PathHunter luminescence, 90 min; at 76.9 µM; hits give high values; zero percent set by DMSO-only wells. In short, it runs like this:
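Luminescent readout of beta-Gal complementation quantifies ligand-induced beta-arrestin association with GPR32 in CHO-K1 cells; 90 min compound incubation at 37 °C, detection 1 h at room temperature.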
As for `CC(C)(C)OC(=O)N1CCC(c2c(C(=O)NC3CCCCC3)cnn2-c2ccc(F)cc2F)CC1`, the activation was inactive: -12.1%. On to `CSc1ccccc1NC(=O)CCS(=O)(=O)c1nc(-c2ccc3c(c2)OCO3)cc(C(F)(F)F)n1`, for which the activation was inactive: -24%. `COc1ccccc1NC(=O)CC(C)n1nc(C)cc1C` (configuration not stated): the activation is inactive: -7.27%. As for `CCOc1ccc(C2c3c(-c4cc(C)ccc4O)n[nH]c3C(=O)N2Cc2cccnc2)cc1OCC` (configuration not stated), the figure is inactive: -23.6%; as for `CCNC(=O)[C@@H]1CCCN1C(=O)[C@H](CCCN=C(N)N)NC(=O)[C@H](CC(C)C)NC(=O)CNC(=O)[C@H](Cc1ccc(O)cc1)NC(=O)[C@H](CO)NC(=O)[C@H](Cc1c[nH]c2ccccc12)NC(=O)[C@H](Cc1cnc[nH]1)NC(=O)[C@@H]1CCC(=O)N1` ([pGlu]HWSYGLRP-NHEt), inactive: 2.03%; as for `Cc1ccc2c(=O)c(C(=O)c3cccc(Cl)c3)cn(CC(=O)NC3CCCCC3)c2n1`, inactive: -3.58%. The figure for `COc1ccc(OC)c(CCNC(=O)CCCn2c(=O)c3cccn3c3ccc(F)cc32)c1` is inactive: -8.91%. With `Cc1cc(F)ccc1NC(=O)CCS(=O)(=O)c1cc2c(cc1C)NC(=O)CO2`, the activation was inactive: -2.39%. For the compound `COc1ccccc1Nc1ncc2c(n1)CCN(Cc1ccc(C)s1)C2`, the activation was inactive: 30.6%. As to `CCOC(=O)N1CCC(NC(=O)c2c(C)nn(-c3cccc(C)c3)c2-n2cccc2)CC1`, the activation is inactive: 9.72%. `COc1ccc(-n2nc3c(N4CCC(C(=O)NCc5ccccc5C)CC4)nnc(C)c3c2C)cc1`: the activation is inactive: -17.4%. Consider `CCOC(=O)c1ccc(NC(=O)CSc2nc3c(c(=O)[nH]2)CN(Cc2ccccc2)CC3)cc1`, for which the activation is inactive: -22.4%. On to `CC(C)(C)C(=O)NCCc1nc2ccccc2n1CCCCOc1ccccc1`, for which the activation was inactive: -7.63%. Turning to `Cc1ccc(N(CC(=O)N2CCN(c3ccc(F)cc3)CC2)S(=O)(=O)c2c(C)noc2C)cc1`, the activation was inactive: -4.27%. With `O=S(=O)(NCc1ccc(F)cc1)c1ccc(N2CCCCS2(=O)=O)cc1`, the activation was inactive: 18.5%.

With `Cc1ccc(CSc2cn(CC(=O)N3CCCCCC3)c3ccccc23)cc1`, the activation was inactive: -31.8%. The figure for `COc1cccc(CNC(=O)Cn2ncc3c(=O)oc4ccccc4c32)c1` is inactive: -4.44%. `CCOc1ccccc1CNCCCSc1nnnn1C`: the activation is inactive: 5.11%.

`CCCN(Cc1cc2cccc(C)c2[nH]c1=O)C(=O)c1cccc(Cl)c1`: the activation was inactive: -9.06%.

With `CCOC(=O)c1c(NC(=O)c2cc(=O)c3cc(C)ccc3o2)sc2c1CCCC2`, the activation was inactive: -7.46%.

For `COc1ccc(Cl)cc1NC(=O)CSC1=Nc2ccccc2C2=NC(CCC(=O)NCc3ccco3)C(=O)N12` (configuration not stated), the activation is inactive: -12.5%. Consider `Cc1ccc(Cn2c(CCNC(=O)c3cccc(C)c3)nc3ccccc32)cc1`, for which the activation is inactive: -13.6%.

Turning to `Cc1ccc(S(=O)(=O)N2CCN(Cc3ccccc3Cl)CC2)cc1`, the activation was inactive: -16.8%.

In the case of `NC(=O)c1cnccn1`, the activation was inactive: 8.95% and inactive: -7.03%. For the compound `Cc1cccc(NC(=O)CN2C(=O)C3(SCC(=O)N3c3ccccc3)c3ccccc32)c1` (configuration not stated), the activation is inactive: -2.5%. Take `O=C(NCCc1ccccc1)c1ccc2c(c1)N(Cc1ccc(F)cc1)C(=O)CS2`: the activation is inactive: -7.43%. The figure for `O=C(NCCC1=CCCCC1)c1ccc2c(c1)sc1nc(-c3ccc(F)cc3)cn12` is inactive: -15.7%; for `COc1ccc(NC(=O)c2cccc(N3CCCS3(=O)=O)c2)c(OC)c1` it is inactive: 2.79%. The figure for `CC(C)Cn1cc(NC(=O)NCc2cccc(Cl)c2)c2ccccc2c1=O` is inactive: -77.6%.

Consider `CCN(CC)c1ccc(NC(=O)CN2CCN(CC(=O)Nc3ccc(Cl)cc3)CC2)cc1`, for which the activation was inactive: -17.7%.

Regarding `Cc1ccc2oc(C(=O)Nc3sc4c(c3C(=O)NCC3CCCO3)CCC4)cc(=O)c2c1` (configuration not stated), the activation was inactive: 9.3%. `Nc1nc(N)c(N=O)c(OCC2CCCCC2)n1`: the activation is inactive: -11.6%. In the case of `COc1cc(OC)c(C2CC(=O)Nc3ccc4ccccc4c32)cc1OC` (configuration not stated), the activation is inactive: 6.88%. `COCCNC(=O)Cn1nc(-c2ccccc2)c2ccccc2c1=O`: the activation was inactive: -5.65%.

`CC(NC(=O)c1cc2c(=O)n3ccccc3nc2n(C(C)C)c1=N)c1ccccc1` (configuration not stated): the activation was inactive: 7.27%. For the compound `CC(NC(=O)Cn1c(=O)oc2cc(S(=O)(=O)N3CCCCCC3)ccc21)c1ccccc1` (configuration not stated), the activation is inactive: -23.6%. As to `COC(=O)c1ccccc1NC(=O)c1nc(-c2ccc(C)cc2)n2c1CCCCC2`, the activation was inactive: 8.93%. The figure for `Cc1ccc(CCNS(=O)(=O)c2ccc3c(c2)C(C(C)C)C(=O)N3)cc1` (configuration not stated) is inactive: 13.2%. `COc1cc(NC(=O)CN2C(=O)CCc3cc(Br)ccc32)cc(OC)c1OC`: the activation is inactive: 15.9%. Consider `COc1cccc(Cn2c(=O)n(CC3CCC(C(=O)NC(C)C)CC3)c(=O)c3sccc32)c1` (configuration not stated), for which the activation was inactive: 13.7%. As to `Cc1cn(C)c(CC(=O)NCc2ccc(Cl)cc2)c1C(=O)O`, the activation was inactive: -5.95%. Consider `Cc1cccc(OC(=O)CSc2nnc(-c3ccc4c(c3)OCO4)o2)c1C`, for which the activation is inactive: -8.31%. Regarding `Cc1ccc(C2=NN(CC(=O)NCCc3ccccc3)C(=O)CC2)cc1`, the activation was inactive: -12.1%. For `CC(=O)N1c2ccccc2C(=O)C1N1CCN(c2cccc(Cl)c2)CC1` (configuration not stated), the activation was inactive: -0.0391%. The figure for `Cc1cccc(-c2noc(-c3cc(C(C)C)[nH]n3)n2)c1` is inactive: -11.8%; for `COCCCNC(=O)c1cn(CC(C)C)c(=O)c2c1c1ccccc1n2C` it is inactive: -12.2%.

As to `CCOc1ccc(OCC)c(NC(=O)c2nnn(Cc3cc(Br)ccc3OC)c2N)c1`, the activation is inactive: -7.56%. `CC(=O)c1ccc(N2CCN(C(=O)C3CCN(S(=O)(=O)c4ccc(Br)s4)CC3)CC2)cc1`: the activation is active: 86.5%. `COCCn1c(CNC(=O)c2cccc(N(C)C)c2)nc2cccnc21`: the activation is inactive: -5.12%. In the case of `COc1cc(OC)c(NS(=O)(=O)c2cc3c(cc2C)NC(=O)CO3)cc1Cl`, the activation is inactive: 2.93%. As for `Cc1ccc(NC(=O)c2nc(S(C)(=O)=O)ncc2N(Cc2ccco2)Cc2ccccc2F)c(C)c1`, the activation was inactive: -7.2%. `Cc1nc2scc(C)n2c(=O)c1S(=O)(=O)Nc1cccc(O)c1`: the activation is inactive: 2.74%. As to `CCN(Cc1ccccc1)C(=O)CCS(=O)(=O)c1cc2c(cc1Cl)NC(=O)CO2`, the activation was inactive: -6.34%. As for `Cc1ccc(C)c(NC(=O)Nc2nnc(N(CC(C)C)CC(C)C)s2)c1`, the activation is inactive: -27.2%. As for `CCOC(=O)c1ccc(CN(Cc2ccc(F)cc2)S(=O)(=O)c2ccc(F)cc2)cc1`, the activation was inactive: -30.4%. In the case of `O=C(Nc1ccc(C(F)(F)F)cc1)c1cc(S(=O)(=O)NC2CCCCCC2)ccc1F`, the activation was inactive: 5%. The figure for `Cc1nc2ccccn2c(=O)c1CCN1CCC(C(=O)c2ccc(F)cc2)CC1` is inactive: 17.4% and inactive: 4%; for `CCCOc1ccc(C2c3c(oc4ccccc4c3=O)C(=O)N2c2ccc(C)cn2)cc1OCC` (configuration not stated) it is inactive: -7.32%.

As to `CCOC(=O)c1c(C)[nH]c(C)c1S(=O)(=O)N1CCC(C(=O)N2CCN(c3cccc(C)c3)C(C)C2)CC1` (configuration not stated), the activation was inactive: 3.96%. On to `Cc1ccccc1S(=O)Cc1ccc(C(=O)NC2CCCCCC2)o1` (configuration not stated), for which the activation is inactive: 2.23%. `CCOc1cccc2sc(NC(=O)c3ccc(S(=O)(=O)N4CCCc5ccccc54)cc3)nc12`: the activation is inactive: -20.2%.

For `Cc1ccc(CCNC(=O)c2ccc3c(=O)n(-c4ccc(C)cc4)c(=O)[nH]c3c2)cc1`, the activation was inactive: 24.5%. Take `Cc1ccccc1N1CCN(CCc2nnc3n2CCCC3)CC1`: the activation was inactive: 8.86%.

For `O=C(CNS(=O)(=O)c1cccs1)N1CCN(c2ccccc2Cl)CC1`, the activation was inactive: -10.9%. As for `COc1ccc2oc(=O)c(-c3nc(-c4cc(OC)c(OC)c(OC)c4)no3)cc2c1`, the figure is inactive: -6.24%. As for `Cc1ccc(C(=O)Nc2ccc3nc(SCC(=O)N4CCc5ccccc54)sc3c2)cc1`, the activation is inactive: -4.45%. For `Cc1ccc2c(CNCc3cccc(Cl)c3)c(C(=O)O)n(Cc3ccc(F)cc3Cl)c2c1`, the activation is inactive: 1.51%. Turning to `Cc1cc2oc(C(=O)Nc3sc4c(c3C(=O)NCc3ccco3)CCC4)cc(=O)c2cc1C`, the activation is inactive: -10.2%. The figure for `O=C(Cn1cc(SCc2cccc(F)c2)c2ccccc21)N1CCCC1` is inactive: -24.1%; for `CCC(=O)c1ccc2c(c1)N(CCCN(C)C)c1ccccc1S2` it is inactive: 2.29% and inactive: -21.3%; for `CC(CNC(=O)CCn1c(=O)c2cccn2c2ccc(F)cc21)c1ccccc1` (configuration not stated) it is inactive: -12.1%. Turning to `CCOC(=O)c1ccccc1NC(=O)CSc1c(C)cnc2c1c(=O)n(C)c(=O)n2C`, the activation was inactive: -8.12%.

With `COCCCNC(=O)c1ccc(CSc2nc3cccnc3n2Cc2ccc(OC)cc2)cc1`, the activation was inactive: -9.6%. Turning to `Cc1nc2c(c(C)c1CCC(=O)N1CCN(c3ccccc3)CC1)c(=O)n(C)c(=O)n2C`, the activation was inactive: 2.59%. As to `O=C(Nc1cccc(Cl)c1Cl)c1cc(S(=O)(=O)N2CCCCC2)ccc1F`, the activation was inactive: -9.39%. `COc1cccc(NC(=O)c2c(-c3ccc(C)cc3)nnc3ccccc23)c1`: the activation is inactive: 7.01%. As to `COc1ccc(CCNC(=O)C2CC(=O)N(CCc3ccccc3)C2)cc1OC` (configuration not stated), the activation is inactive: 1.54%. For the compound `O=C(CCNNC(=O)c1ccncc1)NCc1ccccc1`, the activation is inactive: -48% and inactive: -14.4%. `Cc1ccc(C)c(Cn2c(=O)n(-c3ccc(Cl)cc3)c(=O)c3c4c(sc32)CCC4)c1`: the activation was inactive: -0.328%.

Take `COc1ccc(OC)c(S(=O)(=O)NCCc2sc(-c3cccnc3)nc2C)c1`: the activation was inactive: -19.9%. As to `CC(=O)OC1=CN(Cc2ccccc2)S(=O)(=O)c2ccccc21`, the activation is inactive: -11.1%. Take `CCc1nn(CC(=O)Nc2ccc(C)c(F)c2)c(=O)c2cc3cc(C)ccc3n12`: the activation is inactive: -2.99%.
